Laboratory results taken from PubChem BioAssay AID485344 (National Center for Advancing Translational Sciences (NCATS), 2010).
The whole screen tested about 340,000 compounds, of which about 6,900 (2%) were called active. Cut-off read from the data, not from the text of the source: active = inhibition above about 30%; inactive = below that, where a call was filed. Only a part is listed here, and it is no random draw. Entries without a call were filed so in the source.

The compounds below were run against D(2) dopamine receptor (Homo sapiens) (UniProt P14416) (assay: HTS Assay for Allosteric Antagonists of the Human D2 Dopamine Receptor: Primary Screen for Antagonists). Conditions: HEK293 TREx D2 cells, calcium flux, dopamine EC80; at 10 µM; stronger effect = higher value.
How it was run: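 Overnight-induced (tetracycline, 30 C) HEK293 T-REx cells carrying force-coupled D2 receive a no-wash calcium dye, then compound, then EC80 dopamine at 180 s; signals are read kinetically throughout.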
Note: 0% is about no effect.

Chain of UniProt P14416 (P14416 whole entry, looked up): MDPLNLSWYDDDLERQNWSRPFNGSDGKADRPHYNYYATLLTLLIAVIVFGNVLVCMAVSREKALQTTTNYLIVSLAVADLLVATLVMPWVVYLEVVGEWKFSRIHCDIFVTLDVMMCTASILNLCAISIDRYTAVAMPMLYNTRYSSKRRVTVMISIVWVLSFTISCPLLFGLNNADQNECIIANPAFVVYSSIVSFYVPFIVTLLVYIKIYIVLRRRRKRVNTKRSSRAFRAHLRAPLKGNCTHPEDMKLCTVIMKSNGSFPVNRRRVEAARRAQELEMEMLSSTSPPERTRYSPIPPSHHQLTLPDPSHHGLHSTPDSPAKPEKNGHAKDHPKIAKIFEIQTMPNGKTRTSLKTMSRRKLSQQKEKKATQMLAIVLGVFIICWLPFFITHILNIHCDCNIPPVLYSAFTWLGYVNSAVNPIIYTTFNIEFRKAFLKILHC

Structure (SMILES) | inhibition
COc1cc(OC)cc(-c2cc3nc(C)c(CCC(=O)Nc4ccc(F)c(Cl)c4)c(C)n3n2)c1 | 8.28%
CCOc1ccccc1NC(=O)C1=C(C)Nc2ncnn2C1c1ccccn1 (configuration not stated) | -4.57%
CCOC(=O)CCn1cnc2onc(-c3ccccc3Cl)c2c1=O | 12.2%
COC(=O)c1ccc(Nc2ncnc3c2cnn3-c2ccccc2)cc1 | 1.01%
COc1cc(Cl)c(C)cc1NS(=O)(=O)c1c(C)nc2sccn2c1=O | 12.8%
CC(=O)N1CCN(C(=O)c2cccc(S(=O)(=O)Nc3c(C)n(C)n(-c4ccccc4)c3=O)c2)CC1 | active: 51.1%
COc1ccc(NC(=O)CN(c2ccccc2OC)S(C)(=O)=O)c(OC)c1 | -0.549%
COc1cc(NC(=O)CCc2c(C)nc3c4c(C)cc(C)nc4nn3c2C)cc(OC)c1 | 6.82%
Cc1cc(C)cc(NC(=O)CCCn2nc(C)c3c(C)n(-c4ccccc4)nc3c2=O)c1 | 5.69%
COc1cc(-c2nnc(SCC(=O)Oc3ccc(C)cc3C)o2)cc(OC)c1OC | 27.5%
Cc1ccc(CNC(=O)c2nc(S(=O)(=O)Cc3ccc(C)cc3)ncc2Cl)cc1 | -3%
CCOC(=O)C1(C)C=C(Nc2cccc(C)c2)C(=O)N1c1ccccc1 (configuration not stated) | -5.4%
COc1cccc(-c2nc(SCC(=O)NC3CCCC3)c(-c3ccc(F)cc3)[nH]2)c1 | 3.65%
COCc1nc(-c2ccc(-c3ccccc3)nc2OC)no1 | active: 42.3%
CC1CCN(S(=O)(=O)c2ccc3nc(Nc4cccc(C(F)(F)F)c4)ccc3c2)CC1 | 5.21%
CC(C)c1ccc(/C=C(\C#N)c2nc(-c3cc4ccccc4oc3=O)cs2)cc1 | 10.4%
CCOc1ccc(C(=O)Nc2ccc3nc(SCC(=O)N(C)c4ccccc4)sc3c2)cc1 | -11.5%
COc1ccccc1CNC(=O)c1ccc(Nc2nc3ccccc3n3nnnc23)cc1 | 6.1%
CCOc1ccc(/C=C/c2nc3ccccc3n2S(=O)(=O)c2cccc(Cl)c2)cc1 | -5.33%
O=C(CCNS(=O)(=O)c1cccs1)NC1CCN(Cc2ccccc2)CC1 | active: 41.3%
O=C(NCc1ccccc1)N1CCc2c(sc3c2CCCC3)C1c1ccccc1 (configuration not stated) | -17.5%

Structure (SMILES) | inhibition
Cc1ccc(C2CC2/C(=N/O)c2ccc(F)cc2)cc1 (configuration not stated) | active: 33.6%
COC(=O)c1ccc2c(=O)n(CCCCCC(=O)NC(C)C)c(=O)[nH]c2c1 | -0.781%
O=C(Nc1ccnn1C1CCN(Cc2ccccc2OCCO)CC1)c1cccc(F)c1 | active: 40.5%
Cc1cc(C)cc(NC(=O)CCS(=O)(=O)c2ccc3c(c2)oc(=O)n3C)c1 | -1.25%
Cc1ccc(Cl)cc1NC(=O)N1CCc2cc(S(=O)(=O)N3CCC(C)CC3)ccc21 | 4.51%
O=C(Nc1nnc2n1CCS2)c1ccccc1 | 5.98%
CC(=O)Nc1ccc2nc(SCCOc3ccccc3)sc2c1 | -10.9%
Cc1cccc(NC(=O)C2(C)Cc3ccccc3C(=O)O2)c1 (configuration not stated) | 4.58%
Cc1ccc(NC(=O)C(=O)NCCCN2CCOCC2)cc1C | 1.95%
COc1ccc2sc(N(CCN(C)C)C(=O)/C=C/c3cccs3)nc2c1 | active: 35.8%
Cc1c(CNC2CCCCCC2)c(C(=O)O)c(C)n1Cc1ccc(F)cc1 | -11.2%
CCc1ccc(CN(Cc2ccco2)C(=O)COc2ccc(Cl)cc2C)cc1 | -2.58%
CCc1ccc(NC(=O)CCCn2nc(C)c3c(C)n(-c4ccccc4)nc3c2=O)cc1 | -8.16%
CC(C)CC(C(=O)NCCc1ccccc1)N1Cc2ccccc2C1=O (configuration not stated) | -10.2%
CCCSc1nnc2n(-c3ccc(OC)cc3)c(=O)c3c4c(sc3n12)COC(C(C)C)C4 (configuration not stated) | -21.8%
Cc1nn(C(C)(C)C)c(OC(=O)c2cccc(F)c2)c1Sc1ccccc1 | 10.9%
CCOc1ccc(CNC(=O)C2CCN(Cc3cc4ccccc4n3Cc3ccccc3C)CC2)cc1 | 14%
COc1ccc2c(c1)c1nc3ccccc3nc1n2CCn1c(=O)oc2ccccc21 | active: 33.6%
CCn1c(CC2C(=O)N(C)c3ccccc32)nc2ccccc2c1=O (configuration not stated) | 22%
O=C(Nc1cccc(F)c1)[C@@H](c1ccccc1)N1Cc2ccccc2C1=O | 0.0966%
COc1ccc(Cl)cc1NC(=O)CSc1nc(-c2ccccc2)c2ccccc2n1 | 7.55%

Structure (SMILES) | inhibition
Cc1ccc(OCC(=O)Nc2cc(-c3cccc(C)c3)nn2-c2ccccc2)cc1 | 0.216%
CCc1nc2c(cnn2-c2ccc(Cl)cc2)c(=O)n1-c1ccc(OC)c(Cl)c1 | -14.8%
Cc1ccc(CCNC(=O)c2ccc3c(c2)c(C)c(C)n3Cc2ccccc2)cc1 | -3.17%
CCOc1ccccc1C(=O)Nc1cc2c(cc1N1CCOCC1)n(C)c(=O)n2C | 11.1%
CCCn1c(CCC(=O)Nc2cccc(CC)c2)nc2cccnc21 | 5.69%
Cc1ccccc1CNC(=O)c1ccc(CS(=O)Cc2ccc(Cl)cc2)o1 (configuration not stated) | 8.96%
COc1ccc(-n2c(=O)c3sc4ccccc4c3n(CC(=O)NCc3ccccc3)c2=O)cc1 | -3.85%
O=[N+]([O-])c1cc(-c2nc(-c3ccccc3)no2)ccc1NCCc1ccccc1 | 7.27%
COc1ccc2[nH]cc(CCNC(=O)c3cnn(-c4ccccc4Cl)c3C3CCN(C(=O)OC(C)(C)C)CC3)c2c1 | 21.7%
COc1ccc(-c2[nH]c(-c3cccc(OC)c3)nc2SCC(=O)NCc2ccco2)cc1 | active: 39%
CN(CCOc1ccccc1Cl)Cc1ccccc1 | active: 84.7%
CCOc1ccc(C(=O)Nc2ccc(-c3nc4ccccc4s3)c(C)c2)cc1OCC | -7.7%
Cc1cccc(N2CCN(C(=O)c3ccc(NC(=O)c4nsc5ccccc45)cc3)CC2)c1C | 4.44%
Cc1nc2c(C(=O)NCCc3ccccc3)c[nH]n2c(=O)c1Cc1ccc(F)cc1Cl | -12.6%
Cc1ccc(NC(=O)Cn2nnc(-c3nc(-c4ccc(Cl)cc4)no3)c2N)cc1C | 4.86%
COc1ccc(-c2cc(C(=O)N3CCOCC3)no2)cc1 | active: 34.6%
O=C(CCC(=O)Nc1ccc(Br)cc1)N/N=C/c1ccc(O)cc1 | active: 33.3%
CCN(c1cc(C)cc(C)c1)S(=O)(=O)c1nnc(NC(=O)c2ccco2)s1 | 0.428%
CC(C)Cn1c(=O)c2ccccc2n2c(CCC(=O)Nc3ccc(F)c(F)c3)nnc12 | 9.09%
CCN(C(=O)Cn1nc(Cc2ccncc2)c2ccccc2c1=O)c1cccc(C(F)(F)F)c1 | -0.788%
